In publication PMC4336329 (PLoS ONE, 2015):
Hit rate of the full screen: of about 310,000 compounds, about 14,000 (4.5%) showed an effect of 50% or more. The effect is printed as a negative number. The list shows a part of the results.

What follows are compounds tested against human ether-à-go-go-related gene (hERG) potassium channel (human, UniProt Q12809) (assay: primary screen, population patch clamp on CHO cells stably expressing hERG).
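Also: peak tail current of the secondary pulse compared with the same well before compound.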

Chain of human ether-à-go-go-related gene (hERG) potassium channel (Q12809 whole entry, looked up): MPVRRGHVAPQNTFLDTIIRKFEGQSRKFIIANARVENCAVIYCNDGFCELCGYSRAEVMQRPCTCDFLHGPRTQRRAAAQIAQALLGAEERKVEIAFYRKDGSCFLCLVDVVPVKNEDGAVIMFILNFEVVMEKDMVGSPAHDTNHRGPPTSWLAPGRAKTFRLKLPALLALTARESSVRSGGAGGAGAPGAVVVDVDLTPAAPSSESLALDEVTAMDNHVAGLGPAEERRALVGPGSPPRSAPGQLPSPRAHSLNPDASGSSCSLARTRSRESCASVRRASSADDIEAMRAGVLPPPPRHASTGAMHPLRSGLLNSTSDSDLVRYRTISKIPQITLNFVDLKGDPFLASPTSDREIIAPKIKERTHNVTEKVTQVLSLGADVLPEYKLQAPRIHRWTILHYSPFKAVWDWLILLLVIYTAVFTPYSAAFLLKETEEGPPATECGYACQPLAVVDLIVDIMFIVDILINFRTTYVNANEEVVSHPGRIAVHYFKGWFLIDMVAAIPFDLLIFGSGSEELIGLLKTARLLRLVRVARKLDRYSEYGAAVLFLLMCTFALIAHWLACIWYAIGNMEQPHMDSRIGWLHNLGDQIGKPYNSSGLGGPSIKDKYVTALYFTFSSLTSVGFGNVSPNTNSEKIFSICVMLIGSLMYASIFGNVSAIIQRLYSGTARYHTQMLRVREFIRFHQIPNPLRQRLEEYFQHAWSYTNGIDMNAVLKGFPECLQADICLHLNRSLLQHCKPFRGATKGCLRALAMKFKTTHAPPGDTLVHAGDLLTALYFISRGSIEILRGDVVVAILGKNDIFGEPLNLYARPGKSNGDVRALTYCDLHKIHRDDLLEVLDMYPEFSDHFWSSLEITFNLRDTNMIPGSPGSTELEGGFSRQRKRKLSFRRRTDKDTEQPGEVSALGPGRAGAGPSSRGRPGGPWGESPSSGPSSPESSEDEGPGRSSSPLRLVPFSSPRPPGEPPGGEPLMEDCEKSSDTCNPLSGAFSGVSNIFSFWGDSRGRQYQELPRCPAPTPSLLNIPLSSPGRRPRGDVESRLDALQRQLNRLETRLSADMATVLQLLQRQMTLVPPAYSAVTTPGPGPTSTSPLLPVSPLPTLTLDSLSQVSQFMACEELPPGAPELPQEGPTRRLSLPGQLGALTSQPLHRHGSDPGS

Compound	hERG current change (%, negative = inhibition) at 10uM [%]
OCC1(Cc2ccc(Cl)cc2)CCN(Cc2ccc(Oc3ncccn3)cc2)CC1	-74.1
COc1cccc(NC(=S)N(CCc2c(C)[nH]c3ccccc23)Cc2ccco2)c1	10.7
CCOc1ccc(C(=O)CN2CCN(S(=O)(=O)c3ccc(Cl)cc3)CC2)cc1	-40.2
Cc1nc(SCCO)c2oc3ccccc3c2n1	3.6
CCC(C(=O)OCC(=O)Nc1cccc(OC)c1)c1ccccc1 (stereo not shown)	-1.9
CC(C)NC(=O)C1CC(=O)N(c2ccc(F)c(Cl)c2)C1 (stereo not shown)	7.82
CNCC(O)Cn1c(C(F)(F)F)nc2ccccc21 (stereo not shown)	15.9
O=S(=O)(NCc1ccco1)c1ccc2ccccc2c1	7.32
COC(=O)C1=C(O)/C(=C\c2cc(C)n(-c3ccccc3C)c2C)N=C1C	8.78
CC(C)Oc1ccccc1C(=O)NC(CO)C(=O)O (stereo not shown)	29.1
O=C(C(Cc1ccccc1)N1C(=O)c2ccccc2C1=O)N1c2ccccc2CCc2ccccc21 (stereo not shown)	4.02
COc1cccc2c(C)cc(N3CCCCCC3)nc12	-52.9
CCOC(=O)c1c(NC(=O)CSc2nnc(-c3ccc(OC)cc3)o2)sc2c1CCC2	11.5
CCN(C(=O)COC(=O)c1ccc(=O)n(Cc2ccccc2)n1)C1CCCCC1	9.54
Cc1ccc(-n2c3nc(=O)[nH]c(=O)c-3cc3c(C)nn(-c4ccccc4)c32)c(C)c1	9.98
CC1Cn2c(COc3ccccc3)nnc2S1 (stereo not shown)	5.49
Cc1cccc(-n2c(CNC(=O)c3ccccc3)nnc2SCC(=O)Nc2nccs2)c1	-4.18
COC(=O)c1sccc1NC(=O)c1c(Cl)cccc1Cl	18.1
CCOc1cccc(N)c1	3.39
Cc1nnc(NC(=O)CSc2ccc([N+](=O)[O-])cn2)s1	17.9

Compound	hERG current change (%, negative = inhibition) at 10uM [%]
CC1=CC(C)C(COC(=O)CN2CCCCC2)C(C)C1 (stereo not shown)	7.6
NS(=O)(=O)c1ccc(N=Nc2c(O)[nH]c(=S)[nH]c2=O)cc1	27.3
Cc1nc(Sc2nnnn2C)c2c3c(sc2n1)CCC3	2.42
COC(=O)c1ccccc1NC(=O)Nc1cc(C)cc(C)n1	1.33
CCOC(=O)C1CCN(c2nc3ccccc3nc2C(C#N)C(=O)OC(C)COC)CC1 (stereo not shown)	-13.9
Cc1nc2ccc(NC(=O)CS(=O)(=O)c3ccccc3)cc2s1	0.463
O=C(Nc1ccc(Cl)cc1)N1CCCN(c2ccc(C(F)(F)F)cc2[N+](=O)[O-])CC1	4.29
N#CC1=C(N)C(C#N)(C#N)C(c2cccnc2)C2CN(C(=O)OCc3ccccc3)CC=C12 (stereo not shown)	-16.6
COc1ccc(N(C(C)C(=O)Nc2ccc(S(=O)(=O)N3CCCCC3)cc2)S(C)(=O)=O)cc1 (stereo not shown)	7.62
COc1ccc(C(CNC(=O)CNC(=O)c2ccccc2Cl)N2CCCC2)cc1 (stereo not shown)	-15.3
CN(CC(=O)Nc1ccccc1Br)C(=O)CCc1ccccc1	14.2
Cc1ccc(S(=O)(=O)N2CC(=O)Nc3ccccc32)cc1C	-12.1
Cc1cc(NC(=O)CSc2nc(-c3ccc(Br)cc3)nc3c2c(=O)n(C)c(=O)n3C)no1	-8.93
Cc1cc(C)cc(Nc2cc(=O)n(C3CCCCC3)c(=O)[nH]2)c1	10.2
CCCOc1ccc(/C=N/O)cc1	8.28
O=S(=O)(Nc1cccc(-c2nnco2)c1)c1ccc(F)cc1F	15.9
CC(=O)NC(CC(=O)NCC(=O)Nc1ccc(F)c(F)c1)c1ccccc1 (stereo not shown)	19.6
O=C(c1ccc2c(=O)n(Cc3ccc4c(c3)OCO4)c(=S)[nH]c2c1)N1CCC2(CC1)OCCO2	-13.9
CCCCCOc1ccc(C)cc1CN(CCCl)CCCl.Cl	13.1
O=[N+]([O-])c1ccc(/C=N/Nc2ccc3ccccc3c2)o1	9.24

Compound	hERG current change (%, negative = inhibition) at 10uM [%]
CSc1cc(N2CCOCC2)nc(-c2ccccc2Cl)n1	2.88
COc1ccccc1CN1CCN(Cc2ccc3ccccc3c2)CC1.O=C(O)C(=O)O	-36.7
CCOCc1cc(CN2CCCC(CNC(=O)c3ccco3)C2)ccc1OC (stereo not shown)	-48.3
Cc1sc(NC(=O)C(C)C)c(C(=O)Nc2ccccc2)c1C	4.7
O=C(NC(=S)N1CCCCC1c1cccnc1)c1ccc(F)cc1 (stereo not shown)	5.06
O=C(Cc1cccs1)Nc1ccc(F)cc1F	-0.592
O=C(CSc1nnc(CNC(=O)c2ccccc2F)o1)NCCc1ccccc1	0.688
Cc1cc(NC(=O)Cn2c(=O)c3c(ncn3CCC(C)C)n(Cc3ccccc3)c2=O)no1	-17.5
Cc1cc(C)c(S(=O)(=O)NCCOc2ccccc2)c(C)c1-n1cnnn1	7.74
O=C1OCCN1CCNCc1cn(-c2ccc(F)cc2)nc1-c1ccccc1Cl	-45.2
Clc1ccccc1OCCn1nnc2ccccc21	-4.21
Cc1ccccc1NC(=O)c1ccccc1	9.71
COC(=O)CSc1nnnn1-c1ccccc1	24.6
CC(=N/O)/C(C)=N\NC(=O)c1ccccn1	19.2
O=C(COC(=O)c1cc(S(=O)(=O)N2CCOCC2)ccc1O)NCCc1ccccc1	-4.93
CCOc1cc(C)c(S(=O)(=O)Nc2ccc(F)cc2)cc1C	-7.43
N#CC1=C(N)SC(N)=C(C#N)C1CCC1CCCCC1	16.5
O=C(CN(c1ccccc1)S(=O)(=O)c1ccc(F)cc1)NC1CCCCCC1	-6.17
